From US5843954A, “Camptothecin derivatives, preparations thereof and antitumor agents” (priority 1994, dated 1998)
The name of at least one read-out is uncertain.

system: mouse leukemia L1210; assay: Antitumor activity for L1210 (life prolonging effect, mouse leukemia transplanted intraperitoneally); format: in vivo; details: at optimum dose; i.p. on day 1, 5 and 9; mean survival days treated/non administered; >=125% effective
Procedure: 5×10^5 cells of mouse leukemia L1210 were transplanted intraperitoneally to a group of six female CDF1 mice (7 weeks old, body weight 17-19 g). The test compound was administered intraperitoneally on day 1, 5 and 9 and its life prolonging effect was observed.
In a case of the administration of a test compound as an acid addition salt the test compound was dissolved in water. The total administration amount was 1.56 mg/kg-400 mg/kg. The antitumor activity was expressed by the value (T/C%) wherein T denotes the mean survival days in the drug administered group and C denotes those in the non administered group. In case of equal to or more than 125% the drug is considered to be effective.

Compound	T/C %
CCCC(=O)OCc1c([C@@](O)(CC)C(=O)NCCN(C)C)cc2n(c1=O)Cc1c-2nc2cc(Cl)c(Cl)cc2c1CC [Compound C18]	225%
CC[C@@](O)(C(=O)NCCN(C)C)c1cc2n(c(=O)c1COC(=O)CCSC)Cc1c-2nc2cc(Br)ccc2c1C [Compound C2]	214%
CCC(=O)OCc1c([C@@](O)(CC)C(=O)NCCN(C)C)cc2n(c1=O)Cc1c-2nc2cc(F)ccc2c1CC [Compound C8]	364%
CCCC(=O)OCc1c([C@@](O)(CC)C(=O)NCCN(C)C)cc2n(c1=O)Cc1c-2nc2ccc(O)cc2c1CC [Compound C30]	235%
CCc1c2c(nc3ccc(O)cc13)-c1cc([C@@](O)(CC)C(=O)NCCN(C)C)c(COC(C)=O)c(=O)n1C2 [Compound C45]	147%
CCC(=O)OCc1c([C@@](O)(CC)C(=O)NCCN(C)C)cc2n(c1=O)Cc1c-2nc2cc(Cl)c(Cl)cc2c1CC [Compound C17]	286%
CCCC(=O)OCc1c([C@@](O)(CC)C(=O)NCCN(C)C)cc2n(c1=O)Cc1c-2nc2cc(F)ccc2c1CC [Compound C9]	293%
CCc1c2c(nc3cc(F)c(OC)cc13)-c1cc([C@@](O)(CC)C(=O)NCCN(C)C)c(COC(=O)c3ccncc3)c(=O)n1C2 [Compound C43]	275%
CCC(=O)OCc1c([C@@](O)(CC)C(=O)NCCN(C)C)cc2n(c1=O)Cc1c-2nc2ccc(O)cc2c1CC [Compound C28]	180%
CCc1c2c(nc3ccc(O)cc13)-c1cc([C@@](O)(CC)C(=O)NCCN(C)C)c(COC(=O)CCSC)c(=O)n1C2 [Compound C32]	198%
CCCC(=O)OCc1c([C@@](O)(CC)C(=O)NCCN(C)C)cc2n(c1=O)Cc1c-2nc2cc(F)c(OC)cc2c1CC [Compound C21]	265%
CCC(=O)OCc1c([C@@](O)(CC)C(=O)NCCN(C)C)cc2n(c1=O)Cc1c-2nc2cc(F)c(C)cc2c1CC [Compound C23]	317%
CCOCCC(=O)OCc1c([C@@](O)(CC)C(=O)NCCN(C)C)cc2n(c1=O)Cc1c-2nc2ccc(O)cc2c1CC [Compound C47]	156%
CCc1c2c(nc3cc(Cl)ccc13)-c1cc([C@@](O)(CC)C(=O)NCCN(C)C)c(COC(=O)CCSC)c(=O)n1C2 [Compound C12]	281%
CCc1c2c(nc3cc(F)c(C)cc13)-c1cc([C@@](O)(CC)C(=O)NCCN(C)C)c(COC(=O)c3ccc(OC)cc3)c(=O)n1C2 [Compound C26]	264%
CCc1c2c(nc3cc(F)c(C)cc13)-c1cc([C@@](O)(CC)C(=O)NCCN(C)C)c(COC(=O)c3ccncc3)c(=O)n1C2 [Compound C42]	257%
CCc1c2c(nc3ccc(O)cc13)-c1cc([C@@](O)(CC)C(=O)NCCN(C)C)c(COC(=O)c3ccc(F)cc3)c(=O)n1C2 [Compound C36]	214%
CCC(=O)OCc1c([C@@](O)(CC)C(=O)NCCN(C)C)cc2n(c1=O)Cc1c-2nc2cc(F)c(OC)cc2c1CC [Compound C20]	312%
CCc1c2c(nc3cc(F)c(C)cc13)-c1cc([C@@](O)(CC)C(=O)NCCN(C)C)c(COC(=O)CCSC)c(=O)n1C2 [Compound C25]	300%
CCc1c2c(nc3ccc(O)cc13)-c1cc([C@@](O)(CC)C(=O)NCCN(C)C)c(COC(=O)C(C)C)c(=O)n1C2 [Compound C46]	189%

Compound	T/C %
CCc1c2c(nc3ccc(O)cc13)-c1cc([C@@](O)(CC)C(=O)NCCN(C)C)c(COC(=O)c3cccc(F)c3)c(=O)n1C2 [Compound C38]	226%
CCc1c2c(nc3cc(F)ccc13)-c1cc([C@@](O)(CC)C(=O)NCCN(C)C)c(COC(=O)CCSC)c(=O)n1C2 [Compound C10]	240%
CCCC(=O)OCc1c([C@@](O)(CC)C(=O)NCCN(C)C)cc2n(c1=O)Cc1c-2nc2cc(F)c(C)cc2c1CC [Compound C24]	326%
CCc1c2c(nc3ccc(C)cc13)-c1cc([C@@](O)(CC)C(=O)NCCN(C)C)c(COC(=O)c3ccncc3)c(=O)n1C2 [Compound C39]	376%
CCCC(=O)OCc1c([C@@](O)(CC)C(=O)NCCN(C)C)cc2n(c1=O)Cc1c-2nc2cc(F)c(F)cc2c1CC [Compound C14]	257%
CCc1c2c(nc3cc(F)ccc13)-c1cc([C@@](O)(CC)C(=O)NCCN(C)C)c(COC(=O)c3ccncc3)c(=O)n1C2 [Compound C41]	300%
CCOc1ccc2nc3c(c(C)c2c1)Cn1c-3cc([C@@](O)(CC)C(=O)NCCN(C)C)c(COC(=O)CCSC)c1=O [Compound C1]	252%
CCc1c2c(nc3ccc(C)cc13)-c1cc([C@@](O)(CC)C(=O)NCCN(C)C)c(COC(=O)CCSC)c(=O)n1C2 [Compound C7]	368%
CCC(=O)OCc1c([C@@](O)(CC)C(=O)NCCN(C)C)cc2n(c1=O)Cc1c-2nc2ccc(Cl)cc2c1CC [Compound C3]	275%
CCc1c2c(nc3ccc(Cl)cc13)-c1cc([C@@](O)(CC)C(=O)NCCN(C)C)c(COC(=O)c3ccncc3)c(=O)n1C2 [Compound C40]	266%
CCC(=O)OCc1c([C@@](O)(CC)C(=O)NCCN(C)C)cc2n(c1=O)Cc1c-2nc2cc(F)c(F)cc2c1CC [Compound C13]	214%
CCc1c2c(nc3cc(F)ccc13)-c1cc([C@@](O)(CC)C(=O)NCCN(C)C)c(COC(=O)c3ccc(OC)cc3)c(=O)n1C2 [Compound C11]	243%
CCc1c2c(nc3ccc(Br)cc13)-c1cc([C@@](O)(CC)C(=O)NCCN(C)C)c(COC(=O)CCSC)c(=O)n1C2 [Compound C6]	183%
CCc1c2c(nc3ccc(Cl)cc13)-c1cc([C@@](O)(CC)C(=O)NCCN(C)C)c(COC(=O)CCSC)c(=O)n1C2 [Compound C5]	295%
CCc1c2c(nc3ccc(OC(C)=O)cc13)-c1cc([C@@](O)(CC)C(=O)NCCN(C)C)c(COC(=O)c3ccc(F)cc3)c(=O)n1C2 [Compound C48]	188%
CCc1c2c(nc3cc(F)c(F)cc13)-c1cc([C@@](O)(CC)C(=O)NCCN(C)C)c(COC(=O)c3ccc(OC)cc3)c(=O)n1C2 [Compound C16]	259%
CCCC(=O)OCc1c([C@@](O)(CC)C(=O)NCCN(C)C)cc2n(c1=O)Cc1c-2nc2ccc(Cl)cc2c1CC [Compound C4]	280%
CCc1c2c(nc3cc(Cl)c(Cl)cc13)-c1cc([C@@](O)(CC)C(=O)NCCN(C)C)c(COC(=O)CCSC)c(=O)n1C2 [Compound C19]	198%
CCc1c2c(nc3cc(F)c(F)cc13)-c1cc([C@@](O)(CC)C(=O)NCCN(C)C)c(COC(=O)CCSC)c(=O)n1C2 [Compound C15]	260%
CCc1c2c(nc3cc(F)c(OC)cc13)-c1cc([C@@](O)(CC)C(=O)NCCN(C)C)c(COC(=O)CCSC)c(=O)n1C2 [Compound C22]	228%
